From patent US20220025050A1 (OSE IMMUNOTHERAPEUTICS, published 2022)
Residue numbers refer to the chain shown, from its start.

B1: Anti-PD1 VH fusion to Cytokine-protein A (IL-7), FIG. 4 / Table 1 (other)
chain 1: QIQLVQSGSELKKPGASVKVSCKASGYTFTHYAMNWVRQAPGQGLEWMGWINTNTGEPTYAQGFTGRFVFSLDTSVSTAYLQISSLKAEDTAVYYCAREREPGMDTWGQGTLVTVSSASTKGPSVFPLAPCSRSTSESTAALGCLVKDYFPEPVTVSWNSGALTSGVHTFPAVLQSSGLYSLSSVVTVPSSSLGTKTYTCNVDHKPSNTKVDKRV[human IgG4 Fc with S228P L445P (EU numbers) omitted here]GGGGSGGGGSGGGGSDCDIEGKDGKQYESVLMVSIDQLLDSMKEIGSNCLNNEFNFFKRHICDANKEGMFLFRAARKLRQFLKMNSTGDFDLHLLKVSEGTTILLNCTGQVKGRKPAALGEAQPTKSLEENKSLKEQKKLNDLCFLKRLLQEIKTCWNKILMGTKEH
chain 2: DVVMTQSPLSLPVTLGQPASISCRSSQSLVHANTNTYLEWYQQRPGQSPRLLIYKVSNRFSGVPDRFSGSGSGTDFTLKISRVEAEDVGVYYCFQGTHVPNTFGQGTKLEIKRTVAAPSVFIFPPSDEQLKSGTASVVCLLNNFYPREAKVQWKVDNALQSGNSQESVTEQDSKDSTYSLSSTLTLSKADYEKHKVYACEVTHQGLSSPVTKSFNRGEC
B2: Anti-PD1 VL fusion to Cytokine-protein A (IL-7), FIG. 4 / Table 1 (other)
chain 1: QIQLVQSGSELKKPGASVKVSCKASGYTFTHYAMNWVRQAPGQGLEWMGWINTNTGEPTYAQGFTGRFVFSLDTSVSTAYLQISSLKAEDTAVYYCAREREPGMDTWGQGTLVTVSSASTKGPSVFPLAPCSRSTSESTAALGCLVKDYFPEPVTVSWNSGALTSGVHTFPAVLQSSGLYSLSSVVTVPSSSLGTKTYTCNVDHKPSNTKVDKRV[human IgG4 Fc with S228P L445P (EU numbers) omitted here]
chain 2: DVVMTQSPLSLPVTLGQPASISCRSSQSLVHANTNTYLEWYQQRPGQSPRLLIYKVSNRFSGVPDRFSGSGSGTDFTLKISRVEAEDVGVYYCFQGTHVPNTFGQGTKLEIKRTVAAPSVFIFPPSDEQLKSGTASVVCLLNNFYPREAKVQWKVDNALQSGNSQESVTEQDSKDSTYSLSSTLTLSKADYEKHKVYACEVTHQGLSSPVTKSFNRGECGGGGSGGGGSGGGGSDCDIEGKDGKQYESVLMVSIDQLLDSMKEIGSNCLNNEFNFFKRHICDANKEGMFLFRAARKLRQFLKMNSTGDFDLHLLKVSEGTTILLNCTGQVKGRKPAALGEAQPTKSLEENKSLKEQKKLNDLCFLKRLLQEIKTCWNKILMGTKEH
B3: Chimeric anti-PD1 fused on its heavy chain to Type I-protein B (CD80) (other, not shown: small tags and cut ends)
heavy: QIQLVQSGPELKKPGETVKISCKASGYTFTHYGMNWVKQAPGKGLKWMGWINTNTGEPTYAEEFKGRFAFSLETSASAAFLQINNLKNEDTATYFCAKEREPGMDSWGQGTSVTVSSASTKGPSVFPLAPCSRSTSESTAALGCLVKDYFPEPVTVSWNSGALTSGVHTFPAVLQSSGLYSLSSVVTVPSSSLGTKTYTCNVDHKPSNTKVDKRV[human IgG4 Fc with S228P L445P (EU numbers) omitted here]VIHVTKEVKEVATLSCGHNVSVEELAQTRIYWQKEKKMVLTMMSGDMNIWPEYKNRTIFDITNNLSIVILALRPSDEGTYECVVLKYEKDAFKREHLAEVTLSVKADFPTPSISDFEIPTSNIRRIICSTSGGFPEPHLSWLENGEELNAINTTVSQDPETELYAVSSKLDFNMTTNHSFMCLIKYGHLRVNQTFNWNTTKQEHFPDN
light: DVLLTQTPLSLPVSLGDQASISCRSSQNIVHANGNTYLEWYLQKPGQSPKLLIYKVSNRFSGVPDRFSGSGSGTDFTLKITRVEAEDLGVYYCFQGSHVPNTFGGGTKLEIKRTVAAPSVFIFPPSDEQLKSGTASVVCLLNNFYPREAKVQWKVDNALQSGNSQESVTEQDSKDSTYSLSSTLTLSKADYEKHKVYACEVTHQGLSSPVTKSFNRGEC
notes: Bifunctional molecule
B4: Chimeric anti-PD1 fused on its heavy chain to Type II-protein A (OX40L) (other, not shown: small tags and cut ends)
heavy: QIQLVQSGPELKKPGETVKISCKASGYTFTHYGMNWVKQAPGKGLKWMGWINTNTGEPTYAEEFKGRFAFSLETSASAAFLQINNLKNEDTATYFCAKEREPGMDSWGQGTSVTVSSASTKGPSVFPLAPCSRSTSESTAALGCLVKDYFPEPVTVSWNSGALTSGVHTFPAVLQSSGLYSLSSVVTVPSSSLGTKTYTCNVDHKPSNTKVDKRV[human IgG4 Fc with S228P L445P (EU numbers) omitted here]QVSHRYPRIQSIKVQFTEYKKEKGFILTSQKEDEIMKVQNNSVIINCDGFYLISLKGYFSQEVNISLHYQKDEEPLFQLKKVRSVNSLMVASLTYKDKVYLNVTTDNTSLDDFHVNGGELILIHQNPGEFCVL
light: B3 light
notes: Bifunctional molecule
B5: Chimeric anti-PD1 fused on its heavy chain to Cytokine-protein A (IL-7) (other, not shown: small tags and cut ends)
heavy: QIQLVQSGPELKKPGETVKISCKASGYTFTHYGMNWVKQAPGKGLKWMGWINTNTGEPTYAEEFKGRFAFSLETSASAAFLQINNLKNEDTATYFCAKEREPGMDSWGQGTSVTVSSASTKGPSVFPLAPCSRSTSESTAALGCLVKDYFPEPVTVSWNSGALTSGVHTFPAVLQSSGLYSLSSVVTVPSSSLGTKTYTCNVDHKPSNTKVDKRV[human IgG4 Fc with S228P L445P (EU numbers) omitted here]DCDIEGKDGKQYESVLMVSIDQLLDSMKEIGSNCLNNEFNFFKRHICDANKEGMFLFRAARKLRQFLKMNSTGDFDLHLLKVSEGTTILLNCTGQVKGRKPAALGEAQPTKSLEENKSLKEQKKLNDLCFLKRLLQEIKTCWNKILMGTKEH
light: B3 light
notes: Bifunctional molecule
B6: Humanized anti-PD1 (VH SEQ ID NO:24, VL SEQ ID NO:28) VL fusion to Type I-protein A (CD86) (other)
heavy: B2 chain 1 with T106N
light: DVVMTQSPLSLPVTLGQPASISCRSSQSLVHANTNTYLEWYQQRPGQSPRLLIYKVSNRFSGVPDRFSGSGSGTDFTLKISRVEAEDVGVYYCFQGTHVPNTFGQGTKLEIKRTVAAPSVFIFPPSDEQLKSGTASVVCLLNNFYPREAKVQWKVDNALQSGNSQESVTEQDSKDSTYSLSSTLTLSKADYEKHKVYACEVTHQGLSSPVTKSFNRGECGGGGSGGGGSGGGGSAPLKIQAYFNETADLPCQFANSQNQSLSELVVFWQDQENLVLNEVYLGKEKFDSVHSKYMGRTSFDSDSWTLRLHNLQIKDKGLYQCIIHHKKPTGMIRIHQMNSELSVLANFSQPEIVPISNITENVYINLTCSSIHGYPEPKKMSVLLRTKNSTIEYDGVMQKSQDNVTELYDVSISLSVSFPDVTSNMTIFCILETDKTRLLSSPFSIELEDPQPPPDH
notes: Bifunctional molecule; also called Anti-PD1 fused to Type I-protein A (CD86), VL fusion
B7: Humanized anti-PD1 (VH SEQ ID NO:24, VL SEQ ID NO:28) VL fusion to Type II-protein A (OX40L) (other)
heavy: B2 chain 1 with T106N
light: DVVMTQSPLSLPVTLGQPASISCRSSQSLVHANTNTYLEWYQQRPGQSPRLLIYKVSNRFSGVPDRFSGSGSGTDFTLKISRVEAEDVGVYYCFQGTHVPNTFGQGTKLEIKRTVAAPSVFIFPPSDEQLKSGTASVVCLLNNFYPREAKVQWKVDNALQSGNSQESVTEQDSKDSTYSLSSTLTLSKADYEKHKVYACEVTHQGLSSPVTKSFNRGECGGGGSGGGGSGGGGSQVSHRYPRIQSIKVQFTEYKKEKGFILTSQKEDEIMKVQNNSVIINCDGFYLISLKGYFSQEVNISLHYQKDEEPLFQLKKVRSVNSLMVASLTYKDKVYLNVTTDNTSLDDFHVNGGELILIHQNPGEFCVL
notes: Bifunctional molecule; also called Anti-PD1 fused to Type II-protein A (OX40L), VL fusion
B8: Humanized anti-PD1 (VH SEQ ID NO:24, VL SEQ ID NO:28) VL fusion to Type II-protein B (4-1BBL) (other)
heavy: B2 chain 1 with T106N
light: DVVMTQSPLSLPVTLGQPASISCRSSQSLVHANTNTYLEWYQQRPGQSPRLLIYKVSNRFSGVPDRFSGSGSGTDFTLKISRVEAEDVGVYYCFQGTHVPNTFGQGTKLEIKRTVAAPSVFIFPPSDEQLKSGTASVVCLLNNFYPREAKVQWKVDNALQSGNSQESVTEQDSKDSTYSLSSTLTLSKADYEKHKVYACEVTHQGLSSPVTKSFNRGECGGGGSGGGGSGGGGSREGPELSPDDPAGLLDLRQGMFAQLVAQNVLLIDGPLSWYSDPGLAGVSLTGGLSYKEDTKELVVAKAGVYYVFFQLELRRVVAGEGSGSVSLALHLQPLRSAAGAAALALTVDLPPASSEARNSAFGFQGRLLHLSAGQRLGVHLHTEARARHAWQLTQGATVLGLFRVTPEIPAGLPSPRSE
notes: Bifunctional molecule; also called Anti-PD1 fused to Type II-protein B (4-1BBL), VL fusion
B9: Humanized anti-PD1 (VH SEQ ID NO:24, VL SEQ ID NO:28) VL fusion to Cytokine-protein A (IL-7) (other)
heavy: B2 chain 1 with T106N
light: B2 chain 2
notes: Bifunctional molecule; also called Anti-PD1 fused to Cytokine-protein A (IL-7), VL fusion

Assays:
[1] = molecular target: T1, recombinant hPD1 (Sino Biologicals, reference 10377-H08H) (human, UniProt Q15116 partial chain); experiment: ELISA: hPD-1 immobilized (FIG. 4, Table 1)
T1 construct: also called Human recombinant PD-1 protein; PD1-His recombinant protein

[2] = molecular target: T1, recombinant hPD1 (Sino Biologicals, …); experiment: ELISA: hPD-1 immobilized, anti-human Fc peroxidase
[3] = molecular target: T1, recombinant hPD1 (Sino Biologicals, …); experiment: ELISA: hPD-1 immobilized, anti-human Fc peroxidase; remark: listed apart in the source
[4] = molecular target: T2, biotinylated Human PD1 (AcroBiosystems, reference EP-101) (human, UniProt Q15116 partial chain, limits assumed, biotinylated); experiment: competition ELISA: PD-L1 immobilized, biotinylated PD-1 at fixed concentration, antibody varied
T2 construct: also called biotinylated recombinant human PD-1; recombinant biotinylated PD1 protein
Protocol: FIG. 8: Competition PD-1/PD-L1 or PD-L2 ELISA assay. […] (D): PD-1/PD-L2 antagonist activity. […] Similar protocol as PD-L1/PD-1 assay was used for revelation. In this experiment, the bifunctional molecule comprises a humanized anti-PD1 antibody having a heavy chain variable domain as disclosed in SEQ ID NO: 24 and a light chain variable domain as disclosed in SEQ ID NO:28.
Competitive ELISA assay was performed by PD-1:PD-L1 Inhibitor Screening ELISA Assay Pair (AcroBiosystems; USA; reference EP-101). In this assay, recombinant hPDL1 was immobilized on plastic at 2 μg/ml in PBS pH 7.4 buffer. […] Same ELISA protocol was performed to assess PDL2/PD1 antagonist activity by coating PD-L2 Fc recombinant protein (Sinobiological, #10292-H02H).

| Binder | EC50 [3] | IC50 [4] | other results |
| --- | --- | --- | --- |
| B1 |  |  | EC50 [1]: < 10 ng/mL; EC50 [2]: 5 ng/mL |
| B2 |  |  | EC50 [1]: < 10 ng/mL; EC50 [2]: 5.11 ng/mL |
| B3 | 3.84 ng/mL |  |  |
| B4 | 3.89 ng/mL |  |  |
| B5 | 5.18 ng/mL |  |  |
| B6 |  | 351 ng/mL |  |
| B7 |  | 307 ng/mL |  |
| B8 |  | 355 ng/mL |  |
| B9 |  | 517 ng/mL |  |
